Source: US20050215634A1 (priority 2003, published 2005)

Assays:
[1] = system: V428 human vaginal epithelial cells

CCCCCCCCCCCC(=O)OCC(O)CO (centres unmarked) [GML, glycerol monolaurate]
RNA synthesis by epithelial cells [1]: complete inhibition of RNA synthesis
Toxicity to HVECs (HVECs): Non-Toxic
